# Results reported in a collection of fitness landscapes (doi:10.1038/s41467-024-54723-y).
# In all, about 18,000 sequences were measured (“TetR repression strength (sort-seq, GFP reporter)”: median about 0.23, highest 2% from about 0.68 on). The list shows a part of the results.
# Target: TetR (class B, Tn10) (UniProt P04483)
# Experiment: TetR repression strength (sort-seq, GFP reporter) (relative to tetO2 = 1); higher = stronger repression
# Conditions: E. coli
# How it was run: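 Repression strength was calculated by subtracting the read-weighted mean bin from the top bin index plus one and dividing by the unaltered operator's value. The plasmid library was low-copy in E. coli SIG10-MAX, with eight randomized operator positions between a constitutive promoter and sfGFP and constitutive TetR. Cultures grew 5 h at 37 °C in LB containing 50 µg/mL chloramphenicol before 10^6 cells were sorted by FACS into 13 fluorescence bins, each sequenced on Illumina. Three independent transformations were averaged for members having ≥30 reads in all replicates and a CV ≤0.5.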
# Sequence of UniProt P04483 (P04483 whole entry): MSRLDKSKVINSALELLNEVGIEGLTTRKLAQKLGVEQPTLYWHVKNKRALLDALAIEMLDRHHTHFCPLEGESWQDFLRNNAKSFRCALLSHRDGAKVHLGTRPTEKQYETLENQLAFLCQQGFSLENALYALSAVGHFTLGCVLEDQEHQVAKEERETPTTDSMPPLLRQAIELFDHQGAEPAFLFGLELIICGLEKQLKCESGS
row,Sequence,TetR repression strength
1,TCCCCTACAGTGCAGGAGA,0.333
2,TCCCCAAAAGTCATGGAGA,0
3,TCCCGATTAGTTCGAGAGA,0.0912
4,TCCCAGGAAGTTAACGAGA,0.091
5,TCCCACTGAGTAGAGGAGA,0.138
6,TCCCATAAAGTGGCCGAGA,0.228
7,TCCCTTTTAGTTATGGAGA,0.293
8,TCCCAGGGAGTGCGAGAGA,0.203
9,TCCCTCGCAGTGATCGAGA,0.218
10,TCCCTGTCAGTCAGCGAGA,0.489
11,TCCCCACAAGTACATGAGA,0.184
12,TCCCGCTTAGTACGGGAGA,0.194
13,TCCCTGCGAGTGTCCGAGA,0.184
14,TCCCGACTAGTGGAGGAGA,0.292
15,TCCCGGGGAGTCCGTGAGA,0.302
16,TCCCCGCCAGTCCATGAGA,0.387
17,TCCCGGGTAGTTTTCGAGA,0.137
18,TCCCGGGAAGTGATGGAGA,0.283
19,TCCCGTGTAGTACGGGAGA,0.146
20,TCCCCACTAGTCCGTGAGA,0.279
21,TCCCCAAGAGTAACGGAGA,0.257
22,TCCCTTTCAGTTAGGGAGA,0.239
23,TCCCGGAGAGTGTACGAGA,0.0216
24,TCCCACCTAGTGGCCGAGA,0.416
25,TCCCGTTTAGTTAGTGAGA,0.162
26,TCCCGCAGAGTGCACGAGA,0.155

row,Sequence,TetR repression strength
1,TCCCGCGAAGTTTAAGAGA,0.207
2,TCCCACCGAGTAGGTGAGA,0.178
3,TCCCTGTCAGTGTAGGAGA,0.0999
4,TCCCGTATAGTTCGTGAGA,0.245
5,TCCCGTGGAGTGTAAGAGA,0.172
6,TCCCGAATAGTGGATGAGA,0.339
7,TCCCTCTAAGTTCCGGAGA,0.207
8,TCCCTAACAGTAAAGGAGA,0.475
9,TCCCGGCTAGTGGTGGAGA,0.219
10,TCCCCTTGAGTTGCCGAGA,0.247
11,TCCCCAGGAGTCGAGGAGA,0.164
12,TCCCGATAAGTTGGGGAGA,0.211
13,TCCCATTCAGTGGCGGAGA,0.444
14,TCCCGGGTAGTTAGGGAGA,0.293
15,TCCCTTTCAGTGTTAGAGA,0.459
16,TCCCTGTAAGTTCTTGAGA,0.207
17,TCCCTAACAGTCGGCGAGA,0.163
18,TCCCACTAAGTCTGCGAGA,0.321
19,TCCCCAGTAGTCGCTGAGA,0.311
20,TCCCGGCGAGTAAAAGAGA,0.101
21,TCCCAAAGAGTGGACGAGA,0.218
22,TCCCAGTTAGTTCACGAGA,0.132
23,TCCCACCAAGTATTTGAGA,0.149
24,TCCCTTACAGTCGGGGAGA,0.125
25,TCCCACGTAGTGAGAGAGA,0.164
26,TCCCCTTTAGTTCTTGAGA,0.47

row,Sequence,TetR repression strength
1,TCCCTATAAGTGTCGGAGA,0.113
2,TCCCGGTGAGTGGTAGAGA,0.176
3,TCCCGGGAAGTAGCCGAGA,0.345
4,TCCCTCGGAGTGCCGGAGA,0.204
5,TCCCCAAAAGTGATAGAGA,0.365
6,TCCCTAGGAGTCGAGGAGA,0.0868
7,TCCCTATTAGTGGATGAGA,0.344
8,TCCCCTAGAGTGCTAGAGA,0.0993
9,TCCCCATGAGTTAGTGAGA,0.175
10,TCCCGTTAAGTGAACGAGA,0.369
11,TCCCTCCAAGTAAGGGAGA,0.415
12,TCCCTGAGAGTGTCTGAGA,0.309
13,TCCCATTGAGTTGCTGAGA,0.153
14,TCCCACCTAGTTGTAGAGA,0.3
15,TCCCGCGCAGTGCTCGAGA,0.156
16,TCCCATCAAGTGGATGAGA,0.255
17,TCCCACCGAGTGTAGGAGA,0.149
18,TCCCGCTGAGTCCTTGAGA,0.152
19,TCCCGTGTAGTTCCAGAGA,0.27
20,TCCCAGGTAGTACAGGAGA,0.408
21,TCCCCTGCAGTGGTTGAGA,0.265
22,TCCCTAGGAGTATGGGAGA,0.184
23,TCCCGCTGAGTAATGGAGA,0.218
24,TCCCAACCAGTGTGGGAGA,0.204
25,TCCCAGAGAGTGACGGAGA,0.157
26,TCCCAACAAGTGTTTGAGA,0.0239

row,Sequence,TetR repression strength
1,TCCCTGCCAGTGCGGGAGA,0.186
2,TCCCAATTAGTCTATGAGA,0.182
3,TCCCGTAAAGTTGCAGAGA,0.0543
4,TCCCCGTCAGTCTTCGAGA,0.417
5,TCCCCTCGAGTTGGTGAGA,0.04
6,TCCCTTTCAGTAGAGGAGA,1.01
7,TCCCCGGCAGTGTGGGAGA,0.321
8,TCCCTAGGAGTCACGGAGA,0.315
9,TCCCCGTAAGTTGCCGAGA,0.205
10,TCCCGGGAAGTGAGAGAGA,0.202
11,TCCCGGTGAGTACGCGAGA,0.145
12,TCCCAAGCAGTGACCGAGA,0.232
13,TCCCGTCGAGTGCGAGAGA,0.247
14,TCCCCGTTAGTATCGGAGA,0.00823
15,TCCCAAACAGTAAGCGAGA,0.00622
16,TCCCCGCTAGTGGGAGAGA,0.1
17,TCCCTGCAAGTGATTGAGA,0.356
18,TCCCCGCTAGTGTAGGAGA,0.366
19,TCCCATAAAGTTGTGGAGA,0.24
20,TCCCATGTAGTCTCAGAGA,0.195
21,TCCCCATAAGTGTGAGAGA,0.221
22,TCCCGCAGAGTTTCAGAGA,0.238
23,TCCCAGACAGTTATTGAGA,0.134
24,TCCCGTCCAGTCTCTGAGA,0.377
25,TCCCGCGCAGTGGCGGAGA,0.196
26,TCCCTTAAAGTGATAGAGA,0.406

row,Sequence,TetR repression strength
1,TCCCTCATAGTGTGGGAGA,0.176
2,TCCCTTCTAGTCGCCGAGA,0.42
3,TCCCATTGAGTGGGAGAGA,0.356
4,TCCCACTTAGTTGGGGAGA,0.201
5,TCCCTATGAGTGGTAGAGA,0.288
6,TCCCAGAGAGTATATGAGA,0.104
7,TCCCATAGAGTGCATGAGA,0.263
8,TCCCGGCAAGTTTTGGAGA,0.283
9,TCCCTAGTAGTAGGTGAGA,0.0518
10,TCCCGTGGAGTGGAAGAGA,0.353
11,TCCCCAAAAGTTTTGGAGA,0.276
12,TCCCTGTGAGTATGGGAGA,0.219
13,TCCCTATCAGTTGTTGAGA,0.441
14,TCCCGGGCAGTGGAAGAGA,0.388
15,TCCCGGCAAGTGTTTGAGA,0.11
16,TCCCGCTGAGTAACTGAGA,0.247
17,TCCCCATAAGTCGTAGAGA,0.0346
18,TCCCAGGCAGTGCGTGAGA,0.559
19,TCCCGAATAGTAGAGGAGA,0.104
20,TCCCAAGGAGTCACTGAGA,0.216
21,TCCCTGGGAGTCAGAGAGA,0.548
22,TCCCAATTAGTACTCGAGA,0.374
23,TCCCCGACAGTGCGAGAGA,0.104
24,TCCCCACTAGTGCTAGAGA,0.311
25,TCCCTTACAGTGGAAGAGA,0.133
26,TCCCGATAAGTCGGCGAGA,0.28

row,Sequence,TetR repression strength
1,TCCCGTTGAGTTGCAGAGA,0.379
2,TCCCTAGTAGTGATAGAGA,0.533
3,TCCCGCCCAGTTCCTGAGA,0.369
4,TCCCAGAGAGTGGCAGAGA,0.278
5,TCCCATCGAGTCCAAGAGA,0.229
6,TCCCATAGAGTCCGGGAGA,0.365
7,TCCCAACAAGTTCTGGAGA,0.148
8,TCCCGTTTAGTTTGAGAGA,0.217
9,TCCCGGCTAGTGATAGAGA,0.477
10,TCCCGTTCAGTCGTTGAGA,0.339
11,TCCCTCGCAGTGTGTGAGA,0.243
12,TCCCGTTTAGTCACCGAGA,0.00432
13,TCCCCTAGAGTTGGCGAGA,0.415
14,TCCCGAGTAGTTAGTGAGA,0.111
15,TCCCGCTCAGTCCTCGAGA,0.0498
16,TCCCCAGAAGTAGGTGAGA,0.203
17,TCCCGCAAAGTCTCAGAGA,0.283
18,TCCCGTGAAGTGAACGAGA,0.0691
19,TCCCATGGAGTGGATGAGA,0.28
20,TCCCGCGCAGTGTGTGAGA,0.0407
21,TCCCATGCAGTGTCAGAGA,0.205
22,TCCCATTAAGTGTAGGAGA,0.275
23,TCCCTCGAAGTTAAGGAGA,0.359
24,TCCCAGCCAGTCGAGGAGA,0.248
25,TCCCGCGCAGTGGCTGAGA,0.199
26,TCCCGGGCAGTGCAAGAGA,0.609

row,Sequence,TetR repression strength
1,TCCCCCAGAGTTCGAGAGA,0.191
2,TCCCGTACAGTACGGGAGA,0.173
3,TCCCGGCGAGTGTGGGAGA,0.449
4,TCCCTATAAGTGGAAGAGA,0.404
5,TCCCTCTTAGTGTGGGAGA,0.0777
6,TCCCAGCAAGTCGACGAGA,0.109
7,TCCCACGGAGTAGTAGAGA,0.207
8,TCCCTTACAGTGATGGAGA,0.219
9,TCCCCGCTAGTAAACGAGA,0.477
10,TCCCACTTAGTGTTGGAGA,0.0188
11,TCCCCATTAGTTGGCGAGA,0.242
12,TCCCCCTCAGTAGGGGAGA,0.15
13,TCCCGAGCAGTACCTGAGA,0.154
14,TCCCTGGAAGTAATTGAGA,0.181
15,TCCCGGGCAGTCTATGAGA,0.246
16,TCCCTCATAGTTATGGAGA,0.223
17,TCCCCTGTAGTGTTTGAGA,0.396
18,TCCCTGTGAGTTGAGGAGA,0.19
19,TCCCTGGGAGTTTAGGAGA,0.302
20,TCCCTGCGAGTGATAGAGA,0.618
21,TCCCCGCCAGTGGTCGAGA,0.25
22,TCCCAACAAGTGGCAGAGA,0.0484
23,TCCCGGGAAGTCCGCGAGA,0.144
24,TCCCGGTCAGTTTGTGAGA,0.308
25,TCCCGTCGAGTATTGGAGA,0.293
26,TCCCGATAAGTGAGTGAGA,0.375

row,Sequence,TetR repression strength
1,TCCCATGGAGTTTCGGAGA,0.219
2,TCCCAGCGAGTCATCGAGA,0.17
3,TCCCACCGAGTCGCGGAGA,0.189
4,TCCCACACAGTTGGGGAGA,0.0814
5,TCCCGGGGAGTATATGAGA,0.131
6,TCCCATGGAGTTCATGAGA,0.0516
7,TCCCAGTCAGTCTAGGAGA,0.207
8,TCCCTTATAGTCGCGGAGA,0.142
9,TCCCGTAGAGTTGTCGAGA,0.0979
10,TCCCGCTGAGTTTTAGAGA,0.245
11,TCCCAGCAAGTTAGAGAGA,0.53
12,TCCCGGGCAGTACACGAGA,0.318
13,TCCCATTGAGTACGGGAGA,0.227
14,TCCCGAGAAGTGCTGGAGA,0.428
15,TCCCTAGGAGTGTTAGAGA,0.2
16,TCCCAGCTAGTTGGGGAGA,0.262
17,TCCCTATAAGTCATCGAGA,0.687
18,TCCCGCTTAGTGTTAGAGA,0.03
19,TCCCGGGTAGTGAAGGAGA,0.262
20,TCCCTGGGAGTAAGCGAGA,0.357
21,TCCCCTGCAGTTGGCGAGA,0.247
22,TCCCGGGCAGTGCTAGAGA,0.309
